Measurements reported in paper PMC6919601, “Identification of Plasmodium dipeptidyl aminopeptidase allosteric inhibitors by high throughput screening” (PLoS ONE, 2019).
Hit rate of the full screen: of about 110,000 compounds, about 230 (0.21%) showed an effect of 50% or more. The list shows a part of the results.

Target: DPAP1 (Plasmodium falciparum, UniProt Q8IIJ9)
Test: primary screen, percent inhibition; read by cleavage of a fluorogenic dipeptide substrate; higher = more effect of the substance
Design: species or system P. falciparum D10 trophozoite lysates; single well
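Also: 30 min substrate incubation versus DMSO and 10 µM JCP410 controls.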

Sequence of DPAP1 (Q8IIJ9 whole entry, looked up): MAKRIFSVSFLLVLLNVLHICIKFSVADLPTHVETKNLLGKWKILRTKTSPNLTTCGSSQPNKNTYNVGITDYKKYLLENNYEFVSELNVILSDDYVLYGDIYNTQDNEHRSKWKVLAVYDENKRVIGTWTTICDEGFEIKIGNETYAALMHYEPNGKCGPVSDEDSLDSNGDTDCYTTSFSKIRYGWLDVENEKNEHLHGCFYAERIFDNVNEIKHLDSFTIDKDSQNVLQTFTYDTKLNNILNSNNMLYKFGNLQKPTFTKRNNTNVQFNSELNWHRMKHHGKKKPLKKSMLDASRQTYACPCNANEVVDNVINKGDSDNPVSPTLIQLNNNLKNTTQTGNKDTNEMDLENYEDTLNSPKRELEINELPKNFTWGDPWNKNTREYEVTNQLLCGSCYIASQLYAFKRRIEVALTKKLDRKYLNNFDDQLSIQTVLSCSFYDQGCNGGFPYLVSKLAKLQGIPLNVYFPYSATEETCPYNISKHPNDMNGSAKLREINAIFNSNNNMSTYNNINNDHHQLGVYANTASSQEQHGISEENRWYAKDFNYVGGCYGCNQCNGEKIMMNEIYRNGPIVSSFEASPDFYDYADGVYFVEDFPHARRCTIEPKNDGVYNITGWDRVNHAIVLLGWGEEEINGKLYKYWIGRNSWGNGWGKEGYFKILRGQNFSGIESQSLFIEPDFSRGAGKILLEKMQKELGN

For `Cc1ccccc1OCC(=O)Nc1sc(C)c(C)c1C(N)=O`, which “% Inhibition @ 10 uM” value is on record?
The value was 4.53%.

Which “% Inhibition @ 10 uM” value does the source give for `Cc1cccn2c(=O)c3cc(C#N)c(=N)n(CCN4CCOCC4)c3nc12` here?
Its value is -1.47%.

For `Oc1ccc(SCCCCCN2CCCCC2)cc1`, which “% Inhibition @ 10 uM” value is on record?
Its value is -0.712%.

For `Cc1cc(F)c(F)cc1C(=O)n1nnc2ccccc21`, which “% Inhibition @ 10 uM” value is on record?
Its value is -8.57%.

With `O=C(C1=C(O)C(=O)N(Cc2cccnc2)C1c1ccc(Br)cc1)c1ccccc1` (centres unmarked) as the compound, how does the “% Inhibition @ 10 uM” value read?
Its value is 6.22%.

`O=C(CCS(=O)(=O)c1cccc2nsnc12)N1CCN(Cc2ccc3c(c2)OCO3)CC1` was tested. Which “% Inhibition @ 10 uM” value did it give?
The value was 2.84%.

`FC(F)(F)c1cc(-c2cccs2)nc(N2CCN(Cc3ccccc3)CC2)n1` was tested. Which “% Inhibition @ 10 uM” value did it give?
Its value is -2.12%.

`CC(C)Nc1nc(OC(C(F)(F)F)C(F)(F)F)nc(N(c2ccccc2)c2ccccc2)n1` was tested. Which “% Inhibition @ 10 uM” value did it give?
Its value is 4.22%.

With `Cc1cccc(OCC(=O)N(Cc2ccc(Cl)cc2)C2CCS(=O)(=O)C2)c1C` (centres unmarked) as the compound, how does the “% Inhibition @ 10 uM” value read?
The value was -2.98%.

`O=C(O)c1ccc(-n2cc(Br)cn2)cc1` was tested. Which “% Inhibition @ 10 uM” value did it give?
The value was -4.04%.

For `C=CCn1c(-c2nonc2NC(=O)c2ccccc2Cl)nc2ccccc21`, which “% Inhibition @ 10 uM” value is on record?
The value was 3.84%.

Which “% Inhibition @ 10 uM” value does the source give for `O=C(CN1CCCCCC1)Nc1c2c(nc3c1CCC3)CCCC2` here?
The value was -2.65%.

With `Cc1ccc(/C=C(\NC(=O)c2ccccc2)C(=O)NCC2CCCO2)o1` (centres unmarked) as the compound, how does the “% Inhibition @ 10 uM” value read?
Its value is 4.13%.

For `CC1=C(C#N)C(c2ccccc2Cl)C2=C(O)CC(c3ccccc3)CC2=N1` (centres unmarked), which “% Inhibition @ 10 uM” value is on record?
Its value is 4%.

`CCN(CC)c1ccc(NC(=O)C2CCCC2)c(C)c1` was tested. Which “% Inhibition @ 10 uM” value did it give?
The value was 2.64%.

How did the “% Inhibition @ 10 uM” value turn out when `O=C(c1ccccc1F)N1CCN(C2CC(=O)N(c3ccc(F)cc3)C2=O)CC1` (centres unmarked) was run?
Its value is 0.727%.

How did the “% Inhibition @ 10 uM” value turn out when `Cc1nn(C)cc1C(C)NC(=O)c1c(Cl)c(C)nn1C` (centres unmarked) was run?
The value was -2.77%.

How did the “% Inhibition @ 10 uM” value turn out when `Oc1ncnc2sc3c(c12)CCC3` was run?
Its value is -2.59%.

`Cc1nc2nc(Cc3ccccc3)nn2c(O)c1C` was tested. Which “% Inhibition @ 10 uM” value did it give?
The value was 1%.

With `O=C(CN1C(=O)S/C(=C/c2cccc(Cl)c2)C1=O)Nc1ccc(F)cc1` as the compound, how does the “% Inhibition @ 10 uM” value read?
The value was 0.313%.

`CC(C)c1ccc(OCC(=O)Nc2cccc3c2C(=O)NC3=O)cc1` was tested. Which “% Inhibition @ 10 uM” value did it give?
Its value is -1.22%.

`O=c1c(Cc2ccccc2O)c(O)nc2n1CCCS2` was tested. Which “% Inhibition @ 10 uM” value did it give?
The value was -0.495%.

How did the “% Inhibition @ 10 uM” value turn out when `O=C(CCN1CCN(CCO)CC1)Nc1cccc(Cl)c1` was run?
The value was 3.21%.

With `COCCNC(=O)Nc1cnc2c(OC)cccc2c1O` as the compound, how does the “% Inhibition @ 10 uM” value read?
Its value is -5.15%.

Which “% Inhibition @ 10 uM” value does the source give for `O=C(CSc1nc2nccnc2c(=O)n1CCc1c[nH]c2ccccc12)NCCc1ccccc1` here?
The value was 1.96%.

For `COc1cccc(-c2nnc3sc(NC(=O)C4CCCCC4)nn23)c1`, which “% Inhibition @ 10 uM” value is on record?
The value was -2.48%.

For `O=C(Nc1ccc(Cl)c(Cl)c1)c1ccc(-c2ccccc2)cc1`, which “% Inhibition @ 10 uM” value is on record?
The value was -3.77%.

With `Cc1cccc(NC(=O)Nc2cn(C)c(=O)c3ccccc23)n1` as the compound, how does the “% Inhibition @ 10 uM” value read?
Its value is 0.745%.

How did the “% Inhibition @ 10 uM” value turn out when `CC(CNC(=O)c1nnc(-c2cccc(Cl)c2)o1)c1ccccc1` (centres unmarked) was run?
The value was -6.82%.

`CCc1nnc2c(NCCc3ccccc3)nc3ccccc3n12` was tested. Which “% Inhibition @ 10 uM” value did it give?
The value was -4.47%.

For `COc1cccc(C2C(C#N)=C(N)OC3=C2C(=O)CCC3)c1` (centres unmarked), which “% Inhibition @ 10 uM” value is on record?
The value was -1.08%.

Which “% Inhibition @ 10 uM” value does the source give for `O=C(Nc1cccc2ccccc12)c1ccccc1C(=O)Nc1cccc2ccccc12` here?
The value was -3.65%.

How did the “% Inhibition @ 10 uM” value turn out when `O=C(C1=C(O)C(=O)N(c2nccs2)C1c1ccc(Cl)cc1)c1ccccc1` (centres unmarked) was run?
The value was -2.98%.

How did the “% Inhibition @ 10 uM” value turn out when `O=C(CN1CC(c2ccccc2)CC1=O)Nc1ccc2ccccc2c1` (centres unmarked) was run?
The value was 2.44%.

With `CCOC(=O)c1c(C)c(-c2ccccc2)n(CC(=O)NC(C)(C)C)c1C` as the compound, how does the “% Inhibition @ 10 uM” value read?
Its value is -1.66%.

For `SC1=NC2=C(CCc3ccccc32)C(c2ccccc2Cl)N1` (centres unmarked), which “% Inhibition @ 10 uM” value is on record?
Its value is -4.51%.

With `Cc1oc2c(c(C)cc3oc(=O)c(CC(=O)O)c(C)c32)c1-c1ccccc1` as the compound, how does the “% Inhibition @ 10 uM” value read?
The value was 0.558%.

`CCN(CC)CCNC(=O)NC1CCCCC1` was tested. Which “% Inhibition @ 10 uM” value did it give?
Its value is 1.7%.

Which “% Inhibition @ 10 uM” value does the source give for `O=C(/C=C/c1ccccc1Cl)Nc1ccccc1C(F)(F)F` here?
The value was 0.135%.

How did the “% Inhibition @ 10 uM” value turn out when `CCCn1nnc(NC(=O)c2cccnc2Cl)n1` was run?
The value was -4.35%.

`Cc1ccc(S(=O)(=O)N(CC(=O)Nc2ccc(C(N)=O)cc2)c2cccc(C)c2)cc1` was tested. Which “% Inhibition @ 10 uM” value did it give?
The value was 10.6%.

Which “% Inhibition @ 10 uM” value does the source give for `Cc1ccc(OCC(=O)Nc2cccc(Cl)c2)c(C)c1` here?
Its value is 5.08%.

With `COc1ccccc1N1CCN(S(=O)(=O)c2ccccc2)CC1` as the compound, how does the “% Inhibition @ 10 uM” value read?
Its value is -1.98%.

`Cc1cc(C)c2c(n1)SCC(=O)N2CC(=O)NC(C)c1ccc2c(c1)OCCO2` (centres unmarked) was tested. Which “% Inhibition @ 10 uM” value did it give?
Its value is -4.15%.

With `CCN(CC)C(=O)Cn1cc(SCC(=O)N(C(C)C)C(C)C)c2ccccc21` as the compound, how does the “% Inhibition @ 10 uM” value read?
Its value is -3.73%.

`CCOC(=O)c1cc(C)sc1NC(=O)c1ccc(C)o1` was tested. Which “% Inhibition @ 10 uM” value did it give?
The value was -5.81%.

How did the “% Inhibition @ 10 uM” value turn out when `CCOC(=O)c1c(NC(=O)c2cccc([N+](=O)[O-])c2)sc(C)c1C` was run?
The value was 13.5%.

For `O=c1oc2c(O)cccc2cc1-c1nc(-c2ccccc2)no1`, which “% Inhibition @ 10 uM” value is on record?
Its value is 4.23%.

For `Cc1sc2c(c1C)CSC(C(=O)NCc1cccnc1)=C2`, which “% Inhibition @ 10 uM” value is on record?
Its value is -1.95%.

For `Cc1ccn2c(-c3csc(Nc4ccc(N(C)C)cc4)n3)c(C)nc2c1`, which “% Inhibition @ 10 uM” value is on record?
The value was 0.968%.

For `COC(=O)c1ccc(Cl)c(-c2ccc(C(=O)N[C@@H](C[C@H](C)c3ccccc3)C(=O)NC3(C#N)CCOCC3)cc2)c1`, which “% Inhibition @ 10 uM” value is on record?
The value was -3.14%.

With `CN(C)CCCN1C(=O)c2cccc3cccc(c23)C1=O` as the compound, how does the “% Inhibition @ 10 uM” value read?
Its value is -2.15%.

Which “% Inhibition @ 10 uM” value does the source give for `Fc1ccc2[nH]c(SCc3cccnc3)nc2c1` here?
Its value is 7.4%.

Which “% Inhibition @ 10 uM” value does the source give for `CC(=O)N1CCN(CCN2C(=O)c3cccc4cccc(c34)C2=O)CC1` here?
Its value is -2.74%.

How did the “% Inhibition @ 10 uM” value turn out when `COc1ccc(C2C(C#N)=C(N)OC3=C2C(=O)CC(C)(C)C3)cc1CSc1ccccn1` (centres unmarked) was run?
Its value is 2.76%.

With `CCc1nn(CC(=O)NCc2cccc(OC)c2)c(=O)c2cc3occc3n12` as the compound, how does the “% Inhibition @ 10 uM” value read?
The value was 1.38%.

How did the “% Inhibition @ 10 uM” value turn out when `CCN(CC)C(=O)Cn1ncc2c3ccccc3n(Cc3ccccc3)c2c1=O` was run?
The value was 1.8%.

`CCOc1cc(C2CC(=O)Nc3c2c(=O)nc(SCc2cccc(C)c2)n3C)ccc1O` (centres unmarked) was tested. Which “% Inhibition @ 10 uM” value did it give?
The value was -2.88%.

How did the “% Inhibition @ 10 uM” value turn out when `CN1CCC(N(C)C2CCSC2)CC1` (centres unmarked) was run?
Its value is -1.5%.

How did the “% Inhibition @ 10 uM” value turn out when `O=C(O)c1cccc(N2C(=O)C3C4C=CC(C5CC45)C3C2=O)c1` (centres unmarked) was run?
The value was 1.96%.

`Cc1cc(F)ccc1NC(=O)c1c(Br)c(C)nn1C` was tested. Which “% Inhibition @ 10 uM” value did it give?
Its value is 4.32%.

For `O=C(NCc1ccccn1)c1ccc(Cl)s1`, which “% Inhibition @ 10 uM” value is on record?
The value was -0.687%.

With `CCc1ccc(NC(=O)COc2ccc(Cl)cc2)cc1` as the compound, how does the “% Inhibition @ 10 uM” value read?
Its value is -1.22%.

How did the “% Inhibition @ 10 uM” value turn out when `Cc1cc(NC(=O)c2ccc(C(=O)Nc3cc(C)on3)cc2)no1` was run?
The value was -0.425%.

How did the “% Inhibition @ 10 uM” value turn out when `O=C(O)c1ccccc1C(=O)NCc1ccccc1Cl` was run?
Its value is -4.06%.
